Test results: the supplement of paper PMC4604168 (melanoma cell lines)
This is one part of the list. Many values rest on one well or one pass, so single values are uncertain.

tested on: G361; assay: cell count relative to DMSO control; melanoma cells; higher = more viable cells; conditions: library dose: low library concentration; 72 h
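Note: cell number obtained by counting DAPI-stained nuclei in high-throughput microscope images with image analysis software, screen run in 1,536-well plates.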

Row | Structure (SMILES) | cell count
1 | CS(=O)(=O)CCNCc1ccc(-c2ccc3ncnc(Nc4ccc(OCc5cccc(F)c5)c(Cl)c4)c3c2)o1 [lapatinib] + COCC[n+]1c2c(n(Cc3cnccn3)c1C)C(=O)c1ccccc1C2=O [YM155] (first compound 0.8 µM, partner dose 0.0004 µM) | 94.3%
2 | CN1CCN(c2ccc3nc(-c4c(N)c5c(F)cccc5[nH]c4=O)[nH]c3c2)CC1 [Dovitinib] + COCC[n+]1c2c(n(Cc3cnccn3)c1C)C(=O)c1ccccc1C2=O [YM155] (first compound 0.1 µM, partner dose 0.0004 µM) | 80.6%
3 | C[C@@H](Oc1cc(-c2cnn(C3CCNCC3)c2)cnc1N)c1c(Cl)ccc(F)c1Cl [Crizotinib] + CCCS(=O)(=O)Nc1ccc(F)c(C(=O)c2c[nH]c3ncc(Cl)cc23)c1F [PLX4720] (first compound 0.2 µM, partner dose 0.08 µM) | 84.6%
4 | C=CCNC1=C2C[C@@H](C)C[C@H](OC)[C@H](O)[C@@H](C)/C=C(\C)[C@H](OC(N)=O)[C@@H](OC)/C=C\C=C(/C)C(=O)NC(=CC1=O)C2=O [Tanespimycin] + Cc1nc(Nc2ncc(C(=O)Nc3c(C)cccc3Cl)s2)cc(N2CCN(CCO)CC2)n1 [dasatanib] (first compound 0.002 µM, partner dose 0.004 µM) | 84.2%
5 | CS(=O)(=O)CCNCc1ccc(-c2ccc3ncnc(Nc4ccc(OCc5cccc(F)c5)c(Cl)c4)c3c2)o1 [lapatinib] + Nc1nc(F)nc2c1ncn2[C@@H]1O[C@H](CO)[C@@H](O)[C@@H]1O [fludarabine] (first compound 0.8 µM, partner dose 0.2 µM) | 85.4%
6 | C[C@@H](Oc1cc(-c2cnn(C3CCNCC3)c2)cnc1N)c1c(Cl)ccc(F)c1Cl [Crizotinib] + Nc1cccc2c1CN(C1CCC(=O)NC1=O)C2=O [lenalidomide] (first compound 0.2 µM, partner dose 1 µM) | 99.4%
7 | C[C@@H](Oc1cc(-c2cnn(C3CCNCC3)c2)cnc1N)c1c(Cl)ccc(F)c1Cl [Crizotinib] + COc1ccc(Cl)c(Nc2nc3ccccc3nc2NS(=O)(=O)c2cccc(NC(=O)C(C)(C)N)c2)c1 [XL147] (first compound 0.2 µM, partner dose 0.8 µM) | 95.2%
8 | CS(=O)(=O)CCNCc1ccc(-c2ccc3ncnc(Nc4ccc(OCc5cccc(F)c5)c(Cl)c4)c3c2)o1 [lapatinib] + CCCS(=O)(=O)Nc1ccc(F)c(C(=O)c2c[nH]c3ncc(Cl)cc23)c1F [PLX4720] (first compound 0.8 µM, partner dose 0.08 µM) | 99.1%
